In article PMC7819943, “Rice protein-binding microarrays: a tool to detect cis-acting elements near promoter regions in rice” one finds binding signal data, which are given here for 54 sequences.

The other results are listed elsewhere or left out.

The experiment addresses T1, OsWOX13 (Oryza sativa, UniProt Q5QMM3 1-267).
T1 sequence: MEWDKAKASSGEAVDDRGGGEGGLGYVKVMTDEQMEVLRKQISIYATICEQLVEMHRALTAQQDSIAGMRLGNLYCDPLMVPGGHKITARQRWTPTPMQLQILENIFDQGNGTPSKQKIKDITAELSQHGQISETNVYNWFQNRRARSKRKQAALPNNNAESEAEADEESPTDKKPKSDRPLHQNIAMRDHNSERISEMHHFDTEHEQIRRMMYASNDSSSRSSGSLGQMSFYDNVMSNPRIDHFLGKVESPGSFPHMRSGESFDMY
The experiment in a line: protein-binding microarray (RPBM); PBS, 2% BSA, 51.3 ng/ul salmon testes DNA, 50 uM zinc acetate, 200 nM TF, 25 C, 1 h; high values mean tight binding. The following applies: protein: recombinant; tags: N-terminal polyhistidine and DsRed monomer fusion (pET32a); label: CyDye5-dUTP incorporated in the synthesized complementary strand; 3' TTTTT single-stranded linker to array surface; dsDNA, one strand shown. The essentials: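 The binding signal for each feature is its fluorescence intensity in arbitrary units. An Axon 4000B scanner was used to read a custom Agilent array that had been made double-stranded with Cy5-dUTP primer extension, blocked with 2% BSA, incubated at 25 °C for 1 h with 200 nM protein in PBS, 2% BSA, salmon testes DNA and 50 µM zinc acetate, and washed. The protein was an N-terminal polyhistidine–DsRed transcription factor fusion from E. coli BL21-CodonPlus, purified on Ni–NTA.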
As for “CTCCTGATTGGTCCGCCTCCTCCATCCTCGTCTCCACCCACGGAGTCACCTAGTGCAG”, the binding signal is 36000 fluorescence intensity (a.u.). The same measure for “TCCTCTAACTGTTCGTCATGCTCTGGATTTTGGTGGTGGCCGGAGTCACCTAGTGCAG”: 3660 fluorescence intensity (a.u.); for “AAAAGAGATGGATTGATCAACAAGCCTTAGATATTCTCCACGGAGTCACCTAGTGCAG”: 6270 fluorescence intensity (a.u.). For “TGCAATTTCTGTTTCGTTTATTTGTGATGTTTGTATTTATCGGAGTCACCTAGTGCAG” the value was 4490 fluorescence intensity (a.u.). For “CGTACTTACTAAATTAGGGCTAATTTCATCTTTAATTGCTCGGAGTCACCTAGTGCAG” the value was 13000 fluorescence intensity (a.u.); for “ACAGACATAAATACGATTGATTAAGTAGTAGCCTAGCTAACGGAGTCACCTAGTGCAG”, 14600 fluorescence intensity (a.u.).

Turning to “TGTAATTGGATGGAGGGCGACTTGTTCCATCCAGCCAAGACGGAGTCACCTAGTGCAG”, the binding signal is 27000 fluorescence intensity (a.u.).

Consider “AGTTTACTATGATTGTCGTACTTTAACAATGGAGATGGGCCGGAGTCACCTAGTGCAG”, for which the binding signal was 3980 fluorescence intensity (a.u.). The same measure for “TTTTCTAATTATGTATGTCAAATTTGAACTTTATATGTCGCGGAGTCACCTAGTGCAG”: 26000 fluorescence intensity (a.u.); for “TGTTAATTGTAGCTGACTTCCAGAAGCATATTTGCTTTGTCGGAGTCACCTAGTGCAG”: 26500 fluorescence intensity (a.u.). Regarding “GCACCGATTGGCGTTGTTGACAGGTTGGGCCCCAGCGCATCGGAGTCACCTAGTGCAG”, the binding signal was 14200 fluorescence intensity (a.u.).

For the sequence “ATAGTAATTGGTACGCTTGAAATTCTGGACGCTATCTTTTCGGAGTCACCTAGTGCAG”, the binding signal is 26200 fluorescence intensity (a.u.). The same measure for “TCATAATTACAATGTAGTTCCAAGGCATGTTTGTCACGGCCGGAGTCACCTAGTGCAG”: 20400 fluorescence intensity (a.u.); for “ATAAGATTTGAAAATTACTTTTCAACAAATATTTAGTGAACGGAGTCACCTAGTGCAG”: 7230 fluorescence intensity (a.u.); for “GTGGCGTGCATTGTCAATCAGACGATCACCGTGGCTGCCCCGGAGTCACCTAGTGCAG”: 6470 fluorescence intensity (a.u.). As for “TTTGAATATAATTCAAATTCAAATTTGAATCGGGTATATACGGAGTCACCTAGTGCAG”, the binding signal was 3730 fluorescence intensity (a.u.). For “TCAAATGAATTCTGTTCAAATTGAAGTCACGTACTCGGGCCGGAGTCACCTAGTGCAG” the value was 3310 fluorescence intensity (a.u.); for “AATGACAGGGAAACTGATAAAATCCTCTCTCATGATACTACGGAGTCACCTAGTGCAG”, 15800 fluorescence intensity (a.u.). The same measure for “GCGCGTGATGGAGATTACTTGCTCCCTTGCAACGCTAGCTCGGAGTCACCTAGTGCAG”: 6870 fluorescence intensity (a.u.).

Regarding “CTAACAATAATTTCTTCATTTCTTGCTTTTGCAGAGATTACGGAGTCACCTAGTGCAG”, the binding signal is 4710 fluorescence intensity (a.u.). For “CGTGATTTTATAGCTGGGAGGTCGCGTTGTGCGCGGCAGGCGGAGTCACCTAGTGCAG” the value was 11700 fluorescence intensity (a.u.). On to “TTCCTAATTAATGTTGCTGCTAATCTCGACTGCTCTCGCTCGGAGTCACCTAGTGCAG”, for which the binding signal is 36900 fluorescence intensity (a.u.). Regarding “TAAATAATCTAGATTAATTCATAGTTGGACAGATATGACCCGGAGTCACCTAGTGCAG”, the binding signal was 8420 fluorescence intensity (a.u.). For the sequence “GAATCCATCTGTTAGCAATCAGGGCATCAGCTACTGTCAGCGGAGTCACCTAGTGCAG”, the binding signal is 10100 fluorescence intensity (a.u.).

Take “AATGATAAAACAAATTACAACGAAAACAATGATAATTACTCGGAGTCACCTAGTGCAG”: the binding signal is 4270 fluorescence intensity (a.u.). Regarding “CCTGTGATTGGTTGGCTCGACGTGATGGGCCCCGTTTGTCCGGAGTCACCTAGTGCAG”, the binding signal was 35700 fluorescence intensity (a.u.). Regarding “ATAATTTGAGCAGGTCAATCTAAACACGCTGTCAAGGACTCGGAGTCACCTAGTGCAG”, the binding signal was 6560 fluorescence intensity (a.u.).

With “AAGTTCATAATTCTGTTTAATCATTATGCAATTAAGCTCACGGAGTCACCTAGTGCAG”, the binding signal was 3710 fluorescence intensity (a.u.). The same measure for “CCCCACTAATCACCCATCTTCCTAATCAACTTGAGTTCCTCGGAGTCACCTAGTGCAG”: 9240 fluorescence intensity (a.u.); for “AAGATTGTCATTTGGTTGATTGTTGACCCAGATGAATTAACGGAGTCACCTAGTGCAG”: 8040 fluorescence intensity (a.u.). For “TTGATAAGACCGTTCACAATTTCTTGAAGCTCGATCTCCCCGGAGTCACCTAGTGCAG” the value was 22600 fluorescence intensity (a.u.).

Turning to “AAATGATTTGTTTGTGAACTGTTGTCAAGATATAATCAGCCGGAGTCACCTAGTGCAG”, the binding signal was 33100 fluorescence intensity (a.u.).

In the case of “ATTAATGTATACAAAATTGCCTTTACCATGTTATAGATACCGGAGTCACCTAGTGCAG”, the binding signal is 12400 fluorescence intensity (a.u.). On to “CCATCGTAATTGATCGAAAACTGACAACATGTTAGGGTTGCGGAGTCACCTAGTGCAG”, for which the binding signal was 12700 fluorescence intensity (a.u.).

Turning to “ATAAATTTTACTACCGCAGAATGCTGTTCCGTTTTAAAAGCGGAGTCACCTAGTGCAG”, the binding signal is 3270 fluorescence intensity (a.u.).

For the sequence “CATAATTACCAGACATGTTAAATTTAATATATGGATGTATCGGAGTCACCTAGTGCAG”, the binding signal was 40800 fluorescence intensity (a.u.).

With “ATAGCCAATCTAATAGCTAATTTATACAATAGTTACTTACCGGAGTCACCTAGTGCAG”, the binding signal was 27500 fluorescence intensity (a.u.). The same measure for “AATAACTAATTGCATAGATTGTGACTAATTTGCGATGCGACGGAGTCACCTAGTGCAG”: 55200 fluorescence intensity (a.u.); for “GGTTGTTGATTGCGCACGGATTTCCTCTGTTGTCTTGAGCCGGAGTCACCTAGTGCAG”: 40500 fluorescence intensity (a.u.). For “TAAACTAGATAAATTGTCTGTGCGTTGTAATGGGTGAACACGGAGTCACCTAGTGCAG”, the binding signal was 5600 fluorescence intensity (a.u.). For “GTTGGTTAATTGCAATTTAATTGTTGTATTGTAAGAGTCTCGGAGTCACCTAGTGCAG” the value was 56100 fluorescence intensity (a.u.); for “TTGATTTACATGCAAATTGCCTTGTTTCGCCTTGAGCTTGCGGAGTCACCTAGTGCAG”, 33500 fluorescence intensity (a.u.). For “CATTTGATTTGTAGAAAGAATATATAAATTTTAGAGGATTCGGAGTCACCTAGTGCAG” the value was 16100 fluorescence intensity (a.u.); for “GTAAGAATTGGCTGTTAGATTGGCTATAAATGAATTGGAGCGGAGTCACCTAGTGCAG”, 35700 fluorescence intensity (a.u.). The same measure for “CTCAATGATGGGCCTTGACCGAAAACGACGCTGTCAGACTCGGAGTCACCTAGTGCAG”: 4730 fluorescence intensity (a.u.); for “CTTGATGAAACCTTAGGACGTTTTCTTGGGTTCTTGGGAACGGAGTCACCTAGTGCAG”: 3200 fluorescence intensity (a.u.). As for “CAGCAAACTGATAGTTTTGTCACTAAAATTGCTGTTTTCTCGGAGTCACCTAGTGCAG”, the binding signal was 8340 fluorescence intensity (a.u.). The same measure for “CGTTGACTGCTAATCCAACTTTGCTCTCTTTTCGTTTAGGCGGAGTCACCTAGTGCAG”: 49000 fluorescence intensity (a.u.); for “TCAATGATTATATTTTCATAATATATTTGTCTTGGGTTGACGGAGTCACCTAGTGCAG”: 25600 fluorescence intensity (a.u.).

“ATGATTAAATTTGGGAAATACTCTTCTTCGTTATGGTCCTCGGAGTCACCTAGTGCAG”: the binding signal is 44200 fluorescence intensity (a.u.). For “ATTTGATATAATCCCGTACTAATTGGATTGTATCAAATACCGGAGTCACCTAGTGCAG” the value was 22700 fluorescence intensity (a.u.). The same measure for “TTAATTGATTAATTTCCTTAACCAAATCTTGGCGACTTGACGGAGTCACCTAGTGCAG”: 61200 fluorescence intensity (a.u.); for “ACTAAATTTGGACTCCCTCCAAATTCGACTCCGCATTCCACGGAGTCACCTAGTGCAG”: 4910 fluorescence intensity (a.u.). For the sequence “GGTTAAAATCAAAATAATTATAATATAAAATGAAAGGCGTCGGAGTCACCTAGTGCAG”, the binding signal is 7490 fluorescence intensity (a.u.).
